The source of these data is the supplement of paper PMC11417369.

The list shows a part of the results.

For this test, the system named is PfAP2-HC AP2 domain (GST-tagged). Description: gcPBM binding intensity (ln(normalized median fluorescence intensity)); higher = stronger DNA binding. The gist of the method:
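In this array assay, P. falciparum DNA-binding domains with a GST tag, expressed in E. coli, were applied for 1 h to primer-extended double-stranded 36-bp intergenic genomic probes and negative controls on an Agilent 4 × 180k array. Bound protein was visualised with Alexa488 anti-GST antibody at 488 nm. Binding intensity is the highest Masliner-normalised natural-log median intensity across replicate spots of either probe orientation.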
Take “TGCAAATTTAACAAAAAAAAAAAAAAAAAAAAAAAA [GTGCAC_negctrl_site64]”: the “gcPBM binding intensity (ln)” value stood at 8.76. In the case of “TCTACTACTTAATGGAGTACTAGCTTCATAATATTA [XGTACX_site7030]” it was 9.52. For “TGAACACAGACAAATACACACAAAAAAAATAAATAA [CACACA_site4298]”, the “gcPBM binding intensity (ln)” value came out at 10. With “TATTATGTATAAAGAAGTACTTTTTTTTTTTTTTTC [XGTACX_site201]”, the “gcPBM binding intensity (ln)” value was determined as 9.4. With “AAAAAATGGCTAGTTTGTACACAAAAGTTATTGCAT [XGTACX_site5381]” the figure was 9.92; with “ATATAATATACTTATTGTACTTATTTAAAATACTAA [XGTACX_site4266]”, 9.58; with “AAAAAAAAATAAAAATGTACATATATAATATTATAT [XGTACX_site71]”, 9.77. Take “TTTCTCAATTCTTAGAGTACATAAATAAAAAAAAAA [XGTACX_site7639]”: the “gcPBM binding intensity (ln)” value was 9.29.

Consider “AAGATAAAATTATGCACACATACGAATAATTTTAAA [CACACA_site1705]”, for which the “gcPBM binding intensity (ln)” value came out at 9.78. As for “TTTTACAATAACAATACACACTATAATATATATATA [CACACA_site4893]”, the “gcPBM binding intensity (ln)” value came to 9.73. For the sequence “CATATATATAAATACACACACACACCCCTTATAATT [CACACA_site4064]”, the “gcPBM binding intensity (ln)” value is 10.6. Regarding “TAGGAGCCGAAACACACACACAAAAAAAAAAAAAAA [CACACA_site1731]”, the “gcPBM binding intensity (ln)” value worked out at 9.96. In the case of “AAAAGAATTTGAAGTCGTACAATATCTATTATATGA [XGTACX_site8275]” it was 9.55; in that of “ATACCAATAATATACATACACACATAAAGGTTTATA [CACACA_site314]”, 9.9. On to “AAGAAAAACTAAAGAGTTCTGTTCATATCTCTTTGG [TGCATGCA_negctrl_site549]”, for which the “gcPBM binding intensity (ln)” value worked out at 9.46. Regarding “GGTATTACCTGTTTGTTATGTAGATGTTGCTAGGAT [GTGCAC_negctrl_site736]”, the “gcPBM binding intensity (ln)” value worked out at 9.58. As for “TAATTCTTTATAATAACACACATTCATATACAATAA [CACACA_site2499]”, the “gcPBM binding intensity (ln)” value came out at 9.66. With “ACTTAAATAATACATACACACATGTACATACAGAAA [CACACA_site1595]” the figure was 10.2; with “TATTTATATAGACACACACACATATATTTATATTTT [CACACA_site7240]”, 10.4. On to “TTTACATTTAATAAAAGTACTTATTTCATATACATA [XGTACX_site659]”, for which the “gcPBM binding intensity (ln)” value worked out at 9.36. For “TATATCAAATTCTAAACATGCACAAAAAACTTATAA [TGCATGCA_site510]”, the “gcPBM binding intensity (ln)” value amounted to 9.51. Turning to “AAGGAAAAACCATTCGCACACACACCGAATATATAA [CACACA_site8403]”, the “gcPBM binding intensity (ln)” value was determined as 10.2. With “ATAATAATTTTATGCACACAGAAAAATACAAGGTTA [CACACA_site3510]”, the “gcPBM binding intensity (ln)” value worked out at 9.94.

Regarding “TTATTGGTTATATAAAGTACATTTGAAATATAATTG [XGTACX_site6553]”, the “gcPBM binding intensity (ln)” value stood at 9.48. “TTGCCTGACTTGTTCACACATATTTATGATATACAT [CACACA_site5783]”: the “gcPBM binding intensity (ln)” value is 9.97. For “TTTTCTTGGTATATGATTTATCCTAAATAAGTAAAT [CACACA_negctrl_site294]”, the “gcPBM binding intensity (ln)” value came out at 9.2.

For “AAAAAAAATATATATATTAAAGTTTTAATTTTTATA [CACACA_negctrl_site497]”, the “gcPBM binding intensity (ln)” value is 9.5. As to “TTAGAATTTAGAGAAGTGCATATTAAGTTACGAATT [GTGCAC_site9861]”, the “gcPBM binding intensity (ln)” value is 9.53. As to “ATTATATATATATATAGTACTTTTTTTTTTTTTTTT [XGTACX_site8801]”, the “gcPBM binding intensity (ln)” value worked out at 9.45.

Turning to “AATATACACCCGTGTACACAAATATTTACAAAACGT [CACACA_site4786]”, the “gcPBM binding intensity (ln)” value was 9.85. On to “GTTACACCAACAAACACACACACACCCACCCACAAA [CACACA_site2427]”, for which the “gcPBM binding intensity (ln)” value came to 10.6. On to “AAAAGGAATGAAAATTCACACAACTATAAATACATA [CACACA_site5337]”, for which the “gcPBM binding intensity (ln)” value was 9.81.

“TGTATTATAATATTATGTACTTATAAATTTTATATT [XGTACX_site6432]”: the “gcPBM binding intensity (ln)” value worked out at 9.59. For the sequence “AATTTAAAGTTTTTTTTTTTTTTTTTTTTTTTTTTG [CACACA_negctrl_site1082]”, the “gcPBM binding intensity (ln)” value amounted to 9.16. Take “TGGGTGGTAAAAATGTGTACATAAAAAAATAATGTT [XGTACX_site2235]”: the “gcPBM binding intensity (ln)” value was found to be 9.69. Take “TCTCACATTCTTATGGGTACACATGAGAAATTATAA [XGTACX_site6799]”: the “gcPBM binding intensity (ln)” value is 9.37.

On to “ATATTATTATAAAGTGGTACAATAAATGGTATTATA [XGTACX_site391]”, for which the “gcPBM binding intensity (ln)” value is 9.63. With “TAAGCGTTTTTTAAAACACACATAAGAACTAAATGA [CACACA_site1670]” the figure was 9.63. In the case of “TATTTTCCATGAGGTAGTACACATTAAAAAATCGTT [XGTACX_site6887]” it was 9.52. On to “TTTCTTAAACCGTACAGTACACACCTTTATAATGTT [XGTACX_site434]”, for which the “gcPBM binding intensity (ln)” value came to 9.87. Consider “TAATATTAAAAAGAGACACACAAAAATATTAAAAAA [CACACA_site3120]”, for which the “gcPBM binding intensity (ln)” value amounted to 9.89.

On to “TTACACCTTAGGATCTGTACAAATATATGACAAATC [XGTACX_site4333]”, for which the “gcPBM binding intensity (ln)” value came to 9.47. Take “AAGGTTTTGGGTTTTAATTAATTTAATATGATTATA [XGTACX_negctrl_site147]”: the “gcPBM binding intensity (ln)” value was found to be 9.8. As to “ATATTAAATATATACAGTACACATTACAATACAATA [XGTACX_site3221]”, the “gcPBM binding intensity (ln)” value turned out to be 9.82. “CTTTGTAGTTGGTCCACACACATATCTGGAAGAATA [CACACA_site4834]”: the “gcPBM binding intensity (ln)” value was determined as 9.72. As to “AGAATTATATACACAAGTACATAATGACATATATAT [XGTACX_site5617]”, the “gcPBM binding intensity (ln)” value turned out to be 9.73. As to “TAGATGTATTTTTAAAGTACTTTTTAATATATAATC [XGTACX_site1431]”, the “gcPBM binding intensity (ln)” value is 9.48. For “TAAAAAATTATATTCACACACATACACATATATATA [CACACA_site545]”, the “gcPBM binding intensity (ln)” value amounted to 10.3. On to “CGACTTTTAAAATATACACACATATAAATAAATATA [CACACA_site6523]”, for which the “gcPBM binding intensity (ln)” value came to 9.74. Turning to “TTACAATATAATAAATGTACATATAACAAATATATA [XGTACX_site2199]”, the “gcPBM binding intensity (ln)” value was determined as 9.69. With “TTTTTTTTTTTTTGTAGTACATACTATTTTATTAAT [XGTACX_site950]” the figure was 9.58; with “TATATATGCATTAAAGTGTTTTTTTTTTTTTTTTTT [CACACA_negctrl_site1353]”, 9.55; with “TGTATAACCATAAATTGTACAGAAAAAAGTATAAAA [XGTACX_site1493]”, 9.65. Regarding “TTAAAAAATATATACGTTGATATAATACAACTTGAC [CACACA_negctrl_site1551]”, the “gcPBM binding intensity (ln)” value is 9.58. As to “ATGTGTATATGTTAATGTACAAATTTTGAAAATGCC [XGTACX_site2685]”, the “gcPBM binding intensity (ln)” value stood at 9.86.

On to “ATTTTTTTTTTTTATGGTACACACACGCGTATGGTT [XGTACX_site3888]”, for which the “gcPBM binding intensity (ln)” value was found to be 10.6.
